Laboratory results as given in PubChem BioAssay (Tox21).
Several values for one entry are separate records, joined by “and”; a condition that tells them apart may be missing. Equal entries are not always repeated. The inconclusive results got no clear call from the source; some entries with a clear call stand among them for comparison. Potencies beside an inconclusive call are fits to weak or partial responses and may not hold up. Activity calls are given as the source filed them. The call rests on the fitted dose curve; in most records, active means well fitted cell-killing curve with a large enough effect in the repeat runs; inconclusive means weak or mixed curves, or effect the other way; inactive means flat fitted curve, though single readings scatter.

Experiment: cAMP Responsive Elements (CRE) small molecule antagonists, cell-based qHTS assay: qHTS cell viability counter screen (AID 2060913); further: nearly all actives have a fitted effect of over 40% in size
Conditions: CRE-bla HEK293T viability, CellTiter-Glo luminescence, 5 h; series mostly up to 92.4 µM
Description: U.S. Tox21 Program National Center for Advancing Translational Sciences [NCATS] Division of Preclinical Innovation [DPI] U.S. Environmental Protection Agency [EPA] National Institutes of Environmental Health Sciences [NIEHS] National Toxicology Program [NTP] U.S. Food and Drug Administration [FDA] Tox21 Assay Overview: CREB (cyclic-AMP Responsive Element Binding Protein) is a cellular transcription factor. It binds to certain DNA sequences called cAMP Responsive Elements (CRE) and regulates the transcription of the genes. […] This cell line can be used to find agonists/antagonists of the cyclic AMP signaling pathway. The activation of the report gene under culture conditions can be detected by fluorescence intensity. This cell line has been used to screen the Tox21 10K compound library to identify agonists that induce oxidative stress. The cytotoxicity of the Tox21 compound library against the CRE-bla cell line was tested in parallel by measuring the cell viability using CellTiter-Glo assay (Promega, Madison, WI) in the same wells.
Tox21 Assay Protocol Summary: CRE-bla Hek 293T cells were suspended in assay medium (DMEM containing 10% dialyzed FBS, 0.1 mM NEAA, 1 mM sodium pyruvate and 25 mM HEPES) and dispensed at 2,000 cells/4 uL /well into 1536-well black wall/clear bottom plates using a Multidrop Combi (ThermoFisher Scientific, Waltham, MA) dispenser. After the assay plates were incubated at 37 C/5% CO2 for 18 hrs, 23 nL of compounds dissolved in DMSO, positive controls or DMSO only was transferred to the assay plate by a pintool workstation (Kalypsys, San Diego, CA), followed by addition of 1 uL of 1.25uM NKH477 (0.25 uM as final concentration) in assay medium using a Flying Reagent Dispenser (Aurora Discovery, San Diego, CA). The plates were incubated at 37 C and 5% CO2 for 3 hrs. Then 1 uL of LiveBLAzer B/G FRET substrate (Invitrogen, Carlsbad, CA) was added to each well using Bioraptr Flying Reagent Dispenser (FRD, Aurora Discovery, San Diego, CA). The plates were incubated at room temperature for 2 h, then fluorescence intensities were measured using an Envision plate reader (PerkinElmer, Shelton, CT) at Excitation 405nm, Emission 460nm and 530nm. The % activity was determined from the ratio of 460nm/530nm. For cell viability readout that measures cytotoxicity, 4 uL /well of CellTiter-Glo reagent was added into the assay plates using Bioraptr FRD. After 30 min incubation at room temperature, the luminescence intensity in the assay plates was measured using a ViewLux (PerkinElmer, Shelton, CT) plate reader.
Potency means the concentration at half of the fitted maximal effect; tags describe the fitted curve by direction and shape.

Compound | Potency
CCCCC(O)(Cn1cncn1)c1ccc(Cl)cc1Cl (stereo not given) | inconclusive: 61.1 µM [cytotoxic, single point]
CCOP(=S)(OCC)SC(CCl)N1C(=O)c2ccccc2C1=O (stereo not given) | inconclusive: 61.1 µM [cytotoxic, partial curve, poor fit]
Cc1cc(C(C)(C)c2cc(C)c(O)c(C)c2)cc(C)c1O | inconclusive: 59.1 µM [cytotoxic, single point]
Clc1ccc(C(c2ccc(Cl)cc2)C(Cl)Cl)cc1 | inconclusive: 69.7 µM [cytotoxic, single point]
CCOc1cc(C(C)(C)C)ccc1C1COC(c2c(F)cccc2F)=N1 (stereo not given) | inconclusive: 33.1 µM [cytotoxic, partial curve, poor fit]
c1ccc2c(c1)CCCC2 | inconclusive: 2.02 µM [cytotoxic, single point]
CCCCCCCCn1sccc1=O | active: 54.6 µM and active: 64.1 µM
COC(=O)c1c(C(F)F)nc(C(F)(F)F)c(C2=NCCS2)c1CC(C)C | inactive
CCN1CCC2(CC1)COc1cc3c(cc12)N(C(=O)c1ccc(-c2ccc(-c4nnc(C)o4)cc2C)cc1)CC3 | active: 56.4 µM
CC(=O)NNc1ccccc1 | inactive
CN(C)C(=O)Oc1cc(OC(=O)N(C)C)cc(C(O)CNC(C)(C)C)c1 (stereo not given) | inactive
C[C@]12CC[C@H]3[C@@H](CC[C@@]45O[C@@H]4C(O)=C(C#N)C[C@]35C)[C@@H]1CC[C@@H]2O | inconclusive: 68.6 µM [rising, single point]
CC(C)C#N | inconclusive: 1.28 µM [cytotoxic, single point]
O=C1C=CC(=O)c2ccccc21 | inconclusive: 61.1 µM [cytotoxic, partial curve]
CCOP(=S)(NC(C)C)Oc1ccccc1C(=O)OC(C)C (stereo not given) | inconclusive: 43.3 µM [cytotoxic, partial curve, poor fit]
O=C(c1ccccc1)C(Cl)Cl | inconclusive: 54.5 µM [rising, partial curve, poor fit]
CCN(CC)c1c([N+](=O)[O-])cc(C(F)(F)F)c(N)c1[N+](=O)[O-] | active: 54.5 µM
CCC(C)c1cccc(C(C)CC)c1O (stereo not given) | inconclusive: 38.6 µM [cytotoxic, partial curve]
CC(C)CCCCCCOC(=O)c1ccccc1C(=O)OCCCCCCC(C)C | inconclusive: 6.87 µM [cytotoxic, single point]
CCN(CC)C(=O)N[C@@H]1C=C2c3cccc4[nH]cc(c34)C[C@@H]2N(C)C1 | inactive

Compound | Potency
Clc1ccccc1-c1ccccc1Cl | inactive
CCc1nn(C)c(C(=O)NCc2ccc(C(C)(C)C)cc2)c1Cl | inconclusive: 21.7 µM [cytotoxic, partial curve]
O=S(=O)(O)C(F)(F)C(F)(F)C(F)(F)C(F)(F)C(F)(F)C(F)(F)C(F)(F)C(F)(F)F | inconclusive: 20.7 µM [cytotoxic, full curve, poor fit] and inconclusive: 48.6 µM [cytotoxic, partial curve, poor fit]
CCCCOP(=O)(O)OCCCC | inactive
c1cc2ccc3cccc4ccc(c1)c2c34 | inconclusive: 64.1 µM [cytotoxic, partial curve, poor fit]
Cn1c(-c2ccccc2)cc(-c2ccccc2)[n+]1C | inactive
CC(C)(Cl)[N+](=O)[O-] | inactive
CC1(c2ccc(Oc3ccccc3)cc2)OC(=O)N(Nc2ccccc2)C1=O (stereo not given) | inconclusive: 30.8 µM [cytotoxic, partial curve]
N#Cc1cc(I)c(O)c(I)c1 | inconclusive: 21.7 µM [cytotoxic, single point]
CCOC(=O)C(O)(c1ccc(Cl)cc1)c1ccc(Cl)cc1 | inconclusive: 55 µM [cytotoxic] and inconclusive: 68.6 µM [cytotoxic, single point]
[Cl-].[Cl-].[Hg+2] | active: 19.2 µM and active: 8.63 µM
O=[N+]([O-])O | inconclusive: 0.002 µM [cytotoxic, full curve, poor fit]
Cc1cc(-c2cc(C)c(N)c(C)c2)cc(C)c1N | inconclusive: 14 µM [cytotoxic, single point]
COC(=O)Nc1cccc(OC(=O)Nc2cccc(C)c2)c1 | inconclusive: 1.28 µM [cytotoxic, single point]
O=C(Nc1ccccc1)Nc1ccnc(Cl)c1 | inconclusive: 61.1 µM [cytotoxic, partial curve, poor fit]
O=[N+]([O-])c1ccc(Cl)c([N+](=O)[O-])c1 | active: 27.7 µM and active: 57 µM
CC(=O)[O-].CC(=O)[O-].[Hg+2] | active: 8.63 µM
CCCCOCCOP(=O)(OCCOCCCC)OCCOCCCC | inactive
N#CC(c1ccccc1)c1ccccc1 | inactive
CCCCCCCCCCCCCl | inactive
